# Assay results as given in PubChem BioAssay AID686978 (National Center for Advancing Translational Sciences (NCATS), 2013).
# Values joined by “and” are separate entries in the source; they are usually repeats but may differ in a detail not shown here. Identical values can stand only once. About 64,000 (15%) of roughly 420,000 compounds were called active. Inconclusive results, whose numbers are uncertain, are shown with a selection of clear calls. The call rests on the fitted dose curve; in most records, active means well fitted inhibition curve with a large enough effect; inconclusive means small, poorly fitted or top-dose-only effect; inactive means flat fitted curve, though single readings scatter. Where the call is inconclusive, the potency comes from a doubtful curve fit.
# Assay: qHTS for Inhibitors of human tyrosyl-DNA phosphodiesterase 1 (TDP1): qHTS in cells in absence of CPT; further: nearly all actives have a fitted effect of over 55% in size
# Conditions: DT40 Tdp1-/- hTDP1 cells, no CPT, ATP luminescence, 48 h; activity change, negative = growth inhibition: at 46.2 µM (top of the series) unless noted
# In short: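 Camptothecin absent (DMSO only). Human TDP1-complemented DT40 knockout cells, 400 cells/well, 37 °C for minimum 48 hr; ATP measured via CellTiter-Glo, 30 min dark incubation, luminescence.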
# On the % scale 0 is the no-effect control and ±100 the full control effect; potency means the concentration at half of the fitted maximal effect; tags describe the fitted curve by direction and shape.
Compound,Potency,"activity change, negative = growth inhibition"
Cc1nc(N2CCN(C)CC2)c2c(C)c(C(=O)Nc3ccc(F)cc3)sc2n1,"inconclusive: 23.1 µM [inhibitor, partial curve]",–
O=C(CC1NCCN(Cc2ccccc2)C1=O)Nc1ccc(Cl)cc1 (stereo unspecified),"inconclusive: 0.0052 µM [inhibitor, full curve, poor fit]",–
COc1ccc(S(=O)(=O)Nc2ccc3c(c2)C(=O)N([C@H](C)CO)C[C@H](C)[C@@H](CN(C)S(=O)(=O)c2ccc(F)cc2)O3)cc1,"inconclusive: 29.1 µM [inhibitor, single point]",–
COc1cccc(/C=N/NC(=O)c2nnn(-c3nonc3N)c2C(C)C)c1OCc1ccc(F)cc1,"inconclusive: 29.1 µM [inhibitor, single point]",–
CCc1ccc(C(C(=O)NCc2ccccc2)N(C(=O)c2csnn2)C2CC2)cc1 (stereo unspecified),"inconclusive: 25.9 µM [inhibitor, single point]",–
CCS(=O)(=O)N1CCN=C1SCc1ccc(F)cc1,inactive,–
CCOc1ccc(S(=O)(=O)N2CCOCC2)cc1NC(=O)CN1C(=O)NC(C)(c2ccc(C)cc2)C1=O (stereo unspecified),"inconclusive: 18.4 µM [inhibitor, single point]",–
CCOc1ccc(NC(=O)N2CCN(Cc3cc(=O)n4nc(-c5ccc(OC)cc5)sc4n3)CC2)cc1,inactive,–
COc1cc(OC)cc(C(=O)c2c(C)c(C#N)c3ccccn23)c1,active: 2.31 µM,–
CCCNC(=O)C1(C)CCN(C(=O)c2cc(F)ccc2C)C1 (stereo unspecified),inactive,–
O=C(NCc1ccc(F)cc1)c1ccc2c(c1)nnn2C1CCCC1,"inconclusive: 25.9 µM [inhibitor, partial curve]",–
CCOc1ccc(C(C)=O)cc1CSc1nnnn1-c1ccc(O)cc1,"inconclusive: 29.1 µM [inhibitor, single point]",–
COc1ccc(N2C(=O)CS(=O)(=O)C23C(=O)N(Cc2ccc(C)cc2)c2ccccc23)cc1Cl (stereo unspecified),"inconclusive: 20.6 µM [inhibitor, partial curve, poor fit]",–
CN(Cc1cccs1)C(=O)CSc1nc2ccccc2[nH]1,–,inconclusive: -30.5% [inhibitor]
COc1ccc(CCC(=O)N2CCN(S(=O)(=O)c3ccc4ccccc4c3)CC2)cc1,"inconclusive: 16.4 µM [inhibitor, single point]",–
O=C(Nc1ccc(S(=O)(=O)NCc2ccccc2)cc1)c1ccc(Br)o1,active: 20.6 µM,–
COc1ccc(-c2c3c(=O)n(C)c(=O)n(C)c3cn2Cc2cccnc2)cc1,inactive,–
Cc1nn(-c2ccccn2)c2c1C(c1ccccc1Cl)C1=C(N2)c2ccccc2C1=O (stereo unspecified),active: 4.61 µM,–
CC(Sc1nc(NCc2ccccc2)nc(N2CCOCC2)n1)C(=O)Nc1ccccc1 (stereo unspecified),active: 20.6 µM,–
CCOC(=O)c1[nH]c(C)c(CCC(=O)NCc2ccc(OC)cc2)c1C,inactive,–
O=c1c2c(ncn2C2CCCC2)n(Cc2ccccc2)c(=O)n1CCOc1ccc(Br)cc1,"inconclusive: 18.4 µM [inhibitor, single point]",–
CCOC(=O)N1CCC(N2CCCC(CO)(Cc3ccccc3C)C2)CC1 (stereo unspecified),"inconclusive: 29.1 µM [inhibitor, single point]",–
Cc1c(NC(=O)c2cc(-c3ccc(Cl)cc3)on2)c(=O)n(-c2ccccc2)n1C,"inconclusive: 25.9 µM [inhibitor, single point] and inconclusive: 9.2 µM [inhibitor, partial curve]",–
O=c1cc(Cn2ccnc2)c2cc(O)ccc2o1,inactive,–

Compound,Potency,"activity change, negative = growth inhibition"
CCOC(=O)C1=C(O)C(=O)N(Cc2ccccc2)CC1,inactive,–
CC(C)CC1=NC(C(F)(F)F)(C(F)(F)F)c2c(n(CC(C)C)c(=O)[nH]c2=O)N1,"inconclusive: 29.1 µM [inhibitor, partial curve, poor fit]",–
CC(=O)Nc1nc(-c2ccccc2)nc(-c2ccccc2OC(C)=O)n1,active: 18.4 µM,–
CCOC(=O)c1sc2nc(CSc3ccccc3)nc(N3CCCN(C)CC3)c2c1C,"inconclusive: 25.9 µM [inhibitor, single point]",–
O=C(Nc1ccccc1F)C1COc2ccccc2O1 (stereo unspecified),inactive,–
CCNC(=O)c1ccc(CSc2nc3ccncc3n2Cc2ccc(F)cc2)cc1,"inconclusive: 16.4 µM [inhibitor, partial curve, poor fit]",–
Cc1ccc(-c2nn(-c3ccccc3)cc2/C=C(\C#N)c2cccc(C#N)c2)o1,"inconclusive: 29.1 µM [inhibitor, single point]",–
COC(=O)C(NC(=O)c1ccco1)(Nc1nc(C2CC2)cs1)C(F)(F)F (stereo unspecified),"inconclusive: 9.2 µM [inhibitor, partial curve]",–
O=C(CSc1ccc(-c2cccs2)nn1)c1cccs1,"inconclusive: 18.4 µM [inhibitor, single point]",–
C=CCNC(=O)N1CCCC(C(=O)c2cccc(Cl)c2)C1 (stereo unspecified),"inconclusive: 29.1 µM [inhibitor, single point]",–
CCOC(=O)c1cn(CC#N)c2cc(F)c(F)cc2c1=O,inactive,–
COC(=O)[C@@]1(Cc2ccccc2)[C@H]2C(=O)N(Cc3ccccc3)C(=O)[C@H]2[C@H]2CN(C)C(=NCc3ccccc3)N21,inactive,–
O=C(NCCN1CCN(c2ccccc2)CC1)Nc1cccc(Cl)c1,"inconclusive: 14.6 µM [inhibitor, single point]",–
Cc1ccc(NC(=O)c2ccccc2Cl)c(Cl)c1,inactive,–
COc1ccc(C(=O)NCCN2CCCC2)cc1[N+](=O)[O-],inactive,–
CCS(=O)(=O)N1CCC(C(=O)Nc2cccc(F)c2)CC1,inactive,–
COC(=O)[C@H](C)N(Cc1ccc(Cl)c(Cl)c1)S(=O)(=O)CCN1CCCC1,"inconclusive: 16.4 µM [inhibitor, single point]",–
CCn1c(C(=O)NCc2cc(Br)ccc2OC)cc2oc3ccccc3c21,"inconclusive: 18.4 µM [inhibitor, single point]",–
O=C(C1CCCCC1)N1CCN(c2nc(-c3ccc(F)cc3)cs2)CC1,"inconclusive: 25.9 µM [inhibitor, single point]",–
Cc1ccsc1C(=O)N1CCCC(CCC(=O)NCc2ccccc2F)C1 (stereo unspecified),"inconclusive: 18.4 µM [inhibitor, partial curve]",–
CCN(C(=O)Cn1cnc2onc(-c3ccc(F)cc3)c2c1=O)c1cc(C)ccc1C,active: 20.6 µM,–
COc1cccc(C(=O)NC(=S)NCc2ccco2)c1,inactive,–
Cc1ccc(-c2csc(=Nc3cccnc3)n2CCCn2ccnc2)cc1C,active: 11.6 µM,–
O=C(c1cc[n+]([O-])cc1)N1CCCC(N2CCN(c3cccc(C(F)(F)F)c3)CC2)C1 (stereo unspecified),"inconclusive: 29.1 µM [inhibitor, single point]",–

Compound,Potency,"activity change, negative = growth inhibition"
Cc1ccc(C)c(CN2CCC(CNC(=O)Nc3ccc(F)c(Cl)c3)CC2)c1,"inconclusive: 16.4 µM [inhibitor, partial curve, poor fit]",–
COc1ccc(C(=O)OCC(=O)c2c[nH]c3ccccc23)cc1OC,inactive,–
Cc1ccc(NC(=O)N2CCN(c3cc(-c4noc(C)n4)ccc3C)CC2)c(C)c1,inactive,–
CCOC(=O)N1CCN(C(=O)C2CCCN(S(=O)(=O)c3ccc(OCC)cc3)C2)CC1 (stereo unspecified),active: 16.4 µM,–
COc1ccc(-n2nc3cc(C)c(NC(=S)NC(=O)c4ccccc4C)cc3n2)cc1,"inconclusive: 29.1 µM [inhibitor, single point]",–
Cc1ccc(O)c(C2=NNC(O)(C(F)(F)F)C2)c1 (stereo unspecified),"inconclusive: 8.2 µM [inhibitor, partial curve, poor fit]",–
O=c1[nH]c(/C=C\c2ccc(O)c(O)c2)nc(O)c1[N+](=O)[O-],inactive,–
COc1ccc(-c2onc(C)c2-c2cnn(-c3ccccc3)c2)c(O)c1C,–,inconclusive: -30.9% [inhibitor]
Cc1ccc(C(=O)OCC(=O)Nc2c(Cl)cc(S(N)(=O)=O)cc2Cl)o1,inactive,–
Cc1ccccc1C1CCCN(C(=O)c2cc(COc3c(F)cccc3F)on2)C1 (stereo unspecified),active: 20.6 µM,–
COc1ccc2nc(Nc3nc(C)c(CCC(C)C)c(=O)[nH]3)nc(C)c2c1,active: 18.4 µM,–
Cc1cc(-c2ccccc2)nc(SCc2ccc(C(=O)O)o2)n1,inactive,–
COc1ccc(CNc2nc3ccccc3c3nc(-c4ccccc4)nn23)cc1,active: 11.6 µM,–
COc1ccc(OCC(=O)NNC(=O)c2ccc(-c3ccccc3)cc2)cc1,"inconclusive: 29.1 µM [inhibitor, single point]",–
COc1ccc(OC)c(N2CC(O)(c3cccs3)[N+]3=C2SCCC3)c1 (stereo unspecified),inactive,–
COc1ccc(C(=O)NC2CCCc3c2cnn3-c2cccc(C)c2C)c(OC)n1 (stereo unspecified),active: 8.2 µM,–
O=C(NC(Cc1c[nH]c2ccccc12)C(=O)N/N=C/c1ccc(Cl)cc1)c1cccs1 (stereo unspecified),"inconclusive: 29.1 µM [inhibitor, single point]",–
Fc1ccc2c(c1)C(c1ccncc1)=NNC(c1ccccc1)=N2,"inconclusive: 5.17 µM [inhibitor, partial curve]",–
Cc1ccc(S(=O)(=O)N2CCC(C(=O)N3CCN(c4ccccn4)CC3)CC2)cc1,inactive,–
COc1ccccc1NNC(=O)C(O)(c1ccccc1OC)c1ccccc1OC,active: 23.1 µM,–
Cc1cccc(N2CCN(C(=O)Cc3ccc(-n4c(=O)[nH]c5ccsc5c4=O)cc3)CC2)c1C,"inconclusive: 29.1 µM [inhibitor, single point]",–
COc1ccc(C(=O)/C=C/Nc2ccc(S(N)(=O)=O)cc2)cc1OC,–,inconclusive: -23.1% [inhibitor]
Cc1ccccc1NC(=O)Cn1c(=O)oc2ccccc21,active: 2.06 µM,–
